{
  "source": "the BET-seq Pho4 binding data (Le et al. 2018)",
  "note": "The other results are listed elsewhere or left out. These are noisy estimates, calculated here from bound and input reads.",
  "data": [
    {"target": "T1, Pho4 (S. cerevisiae) (UniProt P07270)", "T1 sequence": "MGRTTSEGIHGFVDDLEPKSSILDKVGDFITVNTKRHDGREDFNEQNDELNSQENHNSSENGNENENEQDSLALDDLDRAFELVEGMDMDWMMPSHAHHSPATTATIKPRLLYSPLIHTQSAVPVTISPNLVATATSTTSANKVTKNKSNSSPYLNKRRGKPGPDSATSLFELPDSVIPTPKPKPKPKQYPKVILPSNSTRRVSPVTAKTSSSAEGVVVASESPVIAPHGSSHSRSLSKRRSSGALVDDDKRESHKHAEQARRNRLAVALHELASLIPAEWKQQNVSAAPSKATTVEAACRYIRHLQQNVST", "assay": "relative binding free energy (BET-seq); higher = weaker binding", "conditions": "reference: library average", "units": {"relative binding free energy": "kcal/mol"}, "values": [
      {"sequence": "AACTTCACGTGGAGTT", "relative binding free energy": 0.33},
      {"sequence": "CTTATCACGTGTGAGG", "relative binding free energy": 0.07},
      {"sequence": "TTCGTCACGTGGTTGA", "relative binding free energy": 0.07},
      {"sequence": "TCGTACACGTGGGCGG", "relative binding free energy": -0.13},
      {"sequence": "GGATTCACGTGGTGGG", "relative binding free energy": 0.29},
      {"sequence": "GGCGGCACGTGCGGAT", "relative binding free energy": -0.08},
      {"sequence": "CTTGGCACGTGTTCGT", "relative binding free energy": -0.05},
      {"sequence": "AGGTCCACGTGTTAGG", "relative binding free energy": 0.01},
      {"sequence": "TGGAACACGTGAAAGT", "relative binding free energy": 0.22},
      {"sequence": "TGAGTCACGTGTAAGA", "relative binding free energy": 0.32},
      {"sequence": "TTATCCACGTGGATTG", "relative binding free energy": 0.02},
      {"sequence": "ATGATCACGTGGACGG", "relative binding free energy": 0.19},
      {"sequence": "GTACGCACGTGTGAGG", "relative binding free energy": -0.02},
      {"sequence": "GGTTCCACGTGGGGGG", "relative binding free energy": 0},
      {"sequence": "AGACTCACGTGTTTGT", "relative binding free energy": 0.16},
      {"sequence": "GTGCCCACGTGGGGGT", "relative binding free energy": -0.27},
      {"sequence": "GGTATCACGTGAAAGT", "relative binding free energy": 0.47},
      {"sequence": "CGGTTCACGTGTTATA", "relative binding free energy": 0.21},
      {"sequence": "GTGTCCACGTGTGGGA", "relative binding free energy": 0.17},
      {"sequence": "AATGACACGTGAGTGC", "relative binding free energy": 0.31},
      {"sequence": "CAATGCACGTGGGTTG", "relative binding free energy": -0.15},
      {"sequence": "ATTGGCACGTGCACAG", "relative binding free energy": 0.01},
      {"sequence": "TAGGACACGTGGTAGG", "relative binding free energy": -0.02},
      {"sequence": "TTTGGCACGTGTTCCT", "relative binding free energy": -0.04},
      {"sequence": "GTTCTCACGTGCGGTA", "relative binding free energy": 0.24},
      {"sequence": "AGTGTCACGTGTGTTT", "relative binding free energy": 0.07},
      {"sequence": "GATTGCACGTGCTTGA", "relative binding free energy": 0.07},
      {"sequence": "ATTAGCACGTGAAGAT", "relative binding free energy": 0.22},
      {"sequence": "CGTGGCACGTGATGTT", "relative binding free energy": 0.01},
      {"sequence": "AATATCACGTGTTTGA", "relative binding free energy": 0.21},
      {"sequence": "ATATTCACGTGGACTT", "relative binding free energy": 0.38},
      {"sequence": "TCTGGCACGTGTGTGC", "relative binding free energy": -0.11},
      {"sequence": "CGTTGCACGTGAGTTA", "relative binding free energy": 0.2},
      {"sequence": "AGTGGCACGTGATAGC", "relative binding free energy": 0.08},
      {"sequence": "TAAGACACGTGGTGGA", "relative binding free energy": -0.03},
      {"sequence": "ATCGTCACGTGAGGAT", "relative binding free energy": 0.48},
      {"sequence": "TGGGGCACGTGTTAAC", "relative binding free energy": -0.11},
      {"sequence": "TGGCGCACGTGGGTCG", "relative binding free energy": -0.33},
      {"sequence": "TGTAGCACGTGTTTAC", "relative binding free energy": -0.12},
      {"sequence": "AGGAACACGTGTTTTA", "relative binding free energy": -0.02},
      {"sequence": "ACTGGCACGTGAGAGG", "relative binding free energy": 0},
      {"sequence": "TTTATCACGTGTTGGG", "relative binding free energy": 0.25},
      {"sequence": "TTTACCACGTGTGGTG", "relative binding free energy": -0.12},
      {"sequence": "CCGGGCACGTGGTTTT", "relative binding free energy": -0.07},
      {"sequence": "TTGGCCACGTGCGTGG", "relative binding free energy": -0.04},
      {"sequence": "TGCTGCACGTGCGAGG", "relative binding free energy": 0.03},
      {"sequence": "GGGAACACGTGCAGGT", "relative binding free energy": 0.06},
      {"sequence": "GATTTCACGTGTGGCA", "relative binding free energy": 0.53},
      {"sequence": "TTGTGCACGTGTGGAA", "relative binding free energy": 0.09},
      {"sequence": "TGCGCCACGTGAGGGG", "relative binding free energy": -0.17},
      {"sequence": "CTGGGCACGTGGGCTC", "relative binding free energy": -0.15},
      {"sequence": "TAATTCACGTGGGATA", "relative binding free energy": 0.24},
      {"sequence": "GGGAGCACGTGCGCGT", "relative binding free energy": -0.24},
      {"sequence": "TACGGCACGTGTTGTG", "relative binding free energy": -0.14},
      {"sequence": "TTGGGCACGTGCCTGG", "relative binding free energy": -0.29},
      {"sequence": "GTATTCACGTGTCCGG", "relative binding free energy": 0.27},
      {"sequence": "TAGCTCACGTGGCTTG", "relative binding free energy": 0.11},
      {"sequence": "GAGTGCACGTGGCGGT", "relative binding free energy": -0.06},
      {"sequence": "GTAGGCACGTGAATGC", "relative binding free energy": 0.2},
      {"sequence": "TCTTTCACGTGGTGGA", "relative binding free energy": 0.22},
      {"sequence": "TCGAGCACGTGATTGT", "relative binding free energy": 0.12},
      {"sequence": "AAGGGCACGTGTTGTA", "relative binding free energy": -0.14},
      {"sequence": "GATGACACGTGGGAGT", "relative binding free energy": 0.07},
      {"sequence": "AATTGCACGTGAAGGG", "relative binding free energy": 0.27},
      {"sequence": "TGAGTCACGTGATGCT", "relative binding free energy": 0.28},
      {"sequence": "GTTAGCACGTGGGGAT", "relative binding free energy": -0.19},
      {"sequence": "ATGGCCACGTGAGGTT", "relative binding free energy": 0.19},
      {"sequence": "TTTATCACGTGTCATA", "relative binding free energy": 0.14},
      {"sequence": "AAGTTCACGTGTTGCA", "relative binding free energy": 0.2},
      {"sequence": "AGAATCACGTGATGGA", "relative binding free energy": 0.37},
      {"sequence": "GTGATCACGTGGTATA", "relative binding free energy": -0.05},
      {"sequence": "GGTCTCACGTGCTAGT", "relative binding free energy": 0.27},
      {"sequence": "CGGGTCACGTGATGGT", "relative binding free energy": 0.1},
      {"sequence": "TTGGTCACGTGTAGTC", "relative binding free energy": 0.17},
      {"sequence": "TGTGACACGTGGAGAT", "relative binding free energy": -0.09},
      {"sequence": "TGTTGCACGTGCGGTT", "relative binding free energy": 0.04},
      {"sequence": "ACGGGCACGTGGATTT", "relative binding free energy": -0.02},
      {"sequence": "TTTTTCACGTGCATTA", "relative binding free energy": 0.23},
      {"sequence": "TATATCACGTGGGCTG", "relative binding free energy": 0.04},
      {"sequence": "AGTGTCACGTGTCGGA", "relative binding free energy": 0.14},
      {"sequence": "TTCATCACGTGTGCGT", "relative binding free energy": 0.24},
      {"sequence": "ATAGGCACGTGTCTTT", "relative binding free energy": -0.14},
      {"sequence": "GAGGACACGTGGTATA", "relative binding free energy": 0.1},
      {"sequence": "TTTTACACGTGCGGTG", "relative binding free energy": 0.07},
      {"sequence": "TTGGGCACGTGGTAGT", "relative binding free energy": -0.11},
      {"sequence": "GGTCGCACGTGGGCCT", "relative binding free energy": -0.03},
      {"sequence": "GGGTTCACGTGAGTCG", "relative binding free energy": 0.51},
      {"sequence": "GATCCCACGTGGGGGG", "relative binding free energy": -0.05},
      {"sequence": "TTGGTCACGTGGTGAT", "relative binding free energy": 0.02},
      {"sequence": "ACGGGCACGTGAGGTG", "relative binding free energy": 0.01},
      {"sequence": "TTAGGCACGTGTCTGT", "relative binding free energy": -0.11},
      {"sequence": "AATTGCACGTGGATTA", "relative binding free energy": 0.02},
      {"sequence": "GTGCACACGTGAAGGT", "relative binding free energy": 0.31},
      {"sequence": "ATTTCCACGTGTAGGT", "relative binding free energy": 0.06},
      {"sequence": "GTTTACACGTGAAGTT", "relative binding free energy": 0.38},
      {"sequence": "GATCACACGTGGGCGG", "relative binding free energy": 0.09},
      {"sequence": "GGGGTCACGTGGAAGT", "relative binding free energy": 0.14},
      {"sequence": "GCGTGCACGTGCATGG", "relative binding free energy": -0.05},
      {"sequence": "GCAGACACGTGTGGTT", "relative binding free energy": 0.16},
      {"sequence": "TAGATCACGTGTTTGT", "relative binding free energy": 0.05},
      {"sequence": "TTGCACACGTGAGCGT", "relative binding free energy": 0.28},
      {"sequence": "GGGTTCACGTGCATGC", "relative binding free energy": 0.33},
      {"sequence": "ATAACCACGTGGTGTA", "relative binding free energy": -0.05},
      {"sequence": "GATTACACGTGTGGTA", "relative binding free energy": 0.32},
      {"sequence": "AGGGCCACGTGTGGGC", "relative binding free energy": -0.08},
      {"sequence": "AGGAACACGTGGGGAG", "relative binding free energy": -0.07},
      {"sequence": "GTGCTCACGTGCGGAT", "relative binding free energy": 0.25},
      {"sequence": "TCGGGCACGTGGAGGG", "relative binding free energy": -0.15},
      {"sequence": "GTGCTCACGTGTGAGG", "relative binding free energy": 0.5},
      {"sequence": "ATAAGCACGTGCGTGG", "relative binding free energy": -0.22},
      {"sequence": "AAGGGCACGTGCGGAG", "relative binding free energy": -0.11},
      {"sequence": "GAGTGCACGTGTGATA", "relative binding free energy": 0.16},
      {"sequence": "ACGTGCACGTGCGGAG", "relative binding free energy": 0.08},
      {"sequence": "TTGTACACGTGTCAAG", "relative binding free energy": 0.06},
      {"sequence": "GGACACACGTGGGTGT", "relative binding free energy": -0.2}
    ]}
  ]
}
